# From the supplement of paper PMC4604168 (melanoma cell lines)
# The list shows a part of the results. Single values are uncertain, as repeats are few or missing.
# System: LB2518-MEL
# Assay: cell count relative to DMSO control; melanoma cells; higher = more viable cells
# Details: library dose: low library concentration; 72 h
# 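Note: cell number obtained by counting DAPI-stained nuclei in high-throughput microscope images with image analysis software, screen run in 1,536-well plates.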
row,SMILES,cell count
1,"CN1CCN(c2ccc3nc(-c4c(N)c5c(F)cccc5[nH]c4=O)[nH]c3c2)CC1 [Dovitinib] + CC(C)CCN1c2nc(Nc3cc(F)c(O)c(F)c3)ncc2N(C)C(=O)C1C [BID1870] (first compound 0.1 µM, partner dose 0.2 µM)",95.4%
2,"CN1CCN(c2ccc3nc(-c4c(N)c5c(F)cccc5[nH]c4=O)[nH]c3c2)CC1 [Dovitinib] + O=C1NC(=O)/C(=C/c2ccc(-c3ccc(F)cc3O)o2)S1 [AS252424] (first compound 0.1 µM, partner dose 1 µM)",87.9%
3,"C=CCNC1=C2C[C@@H](C)C[C@H](OC)[C@H](O)[C@@H](C)/C=C(\C)[C@H](OC(N)=O)[C@@H](OC)/C=C\C=C(/C)C(=O)NC(=CC1=O)C2=O [Tanespimycin] + CCN(CC)CCCCNc1ncc2cc(-c3cc(OC)cc(OC)c3)c(NC(=O)NC(C)(C)C)nc2n1 [PD173074] (first compound 0.002 µM, partner dose 0.1 µM)",95.7%
4,"C[C@@H](Oc1cc(-c2cnn(C3CCNCC3)c2)cnc1N)c1c(Cl)ccc(F)c1Cl [Crizotinib] + CCCCCCCCCCCC1=C(O)C(=O)C=C(O)C1=O [Embelin] (first compound 0.2 µM, partner dose 1.2 µM)",99.7%
5,"CN1CCN(c2ccc3nc(-c4c(N)c5c(F)cccc5[nH]c4=O)[nH]c3c2)CC1 [Dovitinib] + CCCCCCCCCCCC1=C(O)C(=O)C=C(O)C1=O [Embelin] (first compound 0.1 µM, partner dose 1.2 µM)",45.9%
6,"CN1CCN(c2ccc3nc(-c4c(N)c5c(F)cccc5[nH]c4=O)[nH]c3c2)CC1 [Dovitinib] + CCN(CC)CCCCNc1ncc2cc(-c3cc(OC)cc(OC)c3)c(NC(=O)NC(C)(C)C)nc2n1 [PD173074] (first compound 0.1 µM, partner dose 0.1 µM)",98.9%
7,"CS(=O)(=O)CCNCc1ccc(-c2ccc3ncnc(Nc4ccc(OCc5cccc(F)c5)c(Cl)c4)c3c2)o1 [lapatinib] + COC(=O)c1sccc1S(=O)(=O)Nc1ccc(Nc2ccccc2)cc1OC [GSK0660] (first compound 0.8 µM, partner dose 1 µM)",101%
8,"C=CCNC1=C2C[C@@H](C)C[C@H](OC)[C@H](O)[C@@H](C)/C=C(\C)[C@H](OC(N)=O)[C@@H](OC)/C=C\C=C(/C)C(=O)NC(=CC1=O)C2=O [Tanespimycin] + COC(=O)c1sccc1S(=O)(=O)Nc1ccc(Nc2ccccc2)cc1OC [GSK0660] (first compound 0.002 µM, partner dose 1 µM)",112%
9,"C[C@@H](Oc1cc(-c2cnn(C3CCNCC3)c2)cnc1N)c1c(Cl)ccc(F)c1Cl [Crizotinib] + O=S(=O)(c1ccccc1)N(CC(F)(F)F)c1ccc(C(O)(C(F)(F)F)C(F)(F)F)cc1 [T0901317] (first compound 0.2 µM, partner dose 1.4 µM)",99.7%
10,"C=CCNC1=C2C[C@@H](C)C[C@H](OC)[C@H](O)[C@@H](C)/C=C(\C)[C@H](OC(N)=O)[C@@H](OC)/C=C\C=C(/C)C(=O)NC(=CC1=O)C2=O [Tanespimycin] + CCCCCCCCCCCC1=C(O)C(=O)C=C(O)C1=O [Embelin] (first compound 0.002 µM, partner dose 1.2 µM)",100%
11,"CNC(=O)c1cc(Oc2ccc(NC(=O)Nc3ccc(Cl)c(C(F)(F)F)c3)cc2)ccn1 [sorafenib] + COC(=O)c1sccc1S(=O)(=O)Nc1ccc(Nc2ccccc2)cc1OC [GSK0660] (first compound 0.4 µM, partner dose 1 µM)",109%
12,"CNC(=O)c1cc(Oc2ccc(NC(=O)Nc3ccc(Cl)c(C(F)(F)F)c3)cc2)ccn1 [sorafenib] + CCN(CC)CCCCNc1ncc2cc(-c3cc(OC)cc(OC)c3)c(NC(=O)NC(C)(C)C)nc2n1 [PD173074] (first compound 0.4 µM, partner dose 0.1 µM)",128%
13,"CN1CCN(c2ccc3nc(-c4c(N)c5c(F)cccc5[nH]c4=O)[nH]c3c2)CC1 [Dovitinib] + O=c1cc(-c2cccc3c2Sc2ccccc2S3)oc(N2CCOCC2)c1 [KU55933] (first compound 0.1 µM, partner dose 1 µM)",95.8%
14,"C=CCNC1=C2C[C@@H](C)C[C@H](OC)[C@H](O)[C@@H](C)/C=C(\C)[C@H](OC(N)=O)[C@@H](OC)/C=C\C=C(/C)C(=O)NC(=CC1=O)C2=O [Tanespimycin] + O=C1NC(=O)/C(=C/c2ccc(-c3ccc(F)cc3O)o2)S1 [AS252424] (first compound 0.002 µM, partner dose 1 µM)",98.7%
15,"C=CCNC1=C2C[C@@H](C)C[C@H](OC)[C@H](O)[C@@H](C)/C=C(\C)[C@H](OC(N)=O)[C@@H](OC)/C=C\C=C(/C)C(=O)NC(=CC1=O)C2=O [Tanespimycin] + O=C(O)C(=O)Nc1sc2c(c1C(=O)O)CCNC2 [TCS401] (first compound 0.002 µM, partner dose 1.66667 µM)",74.1%
16,"C=CCNC1=C2C[C@@H](C)C[C@H](OC)[C@H](O)[C@@H](C)/C=C(\C)[C@H](OC(N)=O)[C@@H](OC)/C=C\C=C(/C)C(=O)NC(=CC1=O)C2=O [Tanespimycin] + COc1ccc2c(c1)CCC1C2CCC2(C)C(NCCCCCCN3C(=O)C=CC3=O)CCC12 [U73122] (first compound 0.002 µM, partner dose 0.4 µM)",100%
17,"CNC(=O)c1cc(Oc2ccc(NC(=O)Nc3ccc(Cl)c(C(F)(F)F)c3)cc2)ccn1 [sorafenib] + N#Cc1c(O)c2c(-c3ccc(-c4ccccc4O)cc3)csc2[nH]c1=O [A769662] (first compound 0.4 µM, partner dose 2 µM)",98.6%
18,"CS(=O)(=O)CCNCc1ccc(-c2ccc3ncnc(Nc4ccc(OCc5cccc(F)c5)c(Cl)c4)c3c2)o1 [lapatinib] + Oc1cc(-c2nc(-c3ccccc3)[nH]c2-c2ccncc2)ccc1Cl [L779450] (first compound 0.8 µM, partner dose 0.2 µM)",85.9%
19,"CN1CCN(c2ccc3nc(-c4c(N)c5c(F)cccc5[nH]c4=O)[nH]c3c2)CC1 [Dovitinib] + O=C(O)C(=O)Nc1sc2c(c1C(=O)O)CCNC2 [TCS401] (first compound 0.1 µM, partner dose 1.66667 µM)",89.1%
20,"C=CCNC1=C2C[C@@H](C)C[C@H](OC)[C@H](O)[C@@H](C)/C=C(\C)[C@H](OC(N)=O)[C@@H](OC)/C=C\C=C(/C)C(=O)NC(=CC1=O)C2=O [Tanespimycin] + COc1ccc(COc2ccc(Cc3cnc(N)nc3N)cc2OC)cc1 [GW2580] (first compound 0.002 µM, partner dose 1 µM)",94%
21,"CNC(=O)c1cc(Oc2ccc(NC(=O)Nc3ccc(Cl)c(C(F)(F)F)c3)cc2)ccn1 [sorafenib] + COc1ccc(-c2ccc3c(N4CCOCC4)nc(N4C[C@@H](C)O[C@@H](C)C4)nc3n2)cc1CO [KU0063794] (first compound 0.4 µM, partner dose 0.02 µM)",108%
22,"CNC(=O)c1cc(Oc2ccc(NC(=O)Nc3ccc(Cl)c(C(F)(F)F)c3)cc2)ccn1 [sorafenib] + COc1ccc2c(c1)CCC1C2CCC2(C)C(NCCCCCCN3C(=O)C=CC3=O)CCC12 [U73122] (first compound 0.4 µM, partner dose 0.4 µM)",97%
23,"C[C@@H](Oc1cc(-c2cnn(C3CCNCC3)c2)cnc1N)c1c(Cl)ccc(F)c1Cl [Crizotinib] + O=c1cc(-c2cccc3c2Sc2ccccc2S3)oc(N2CCOCC2)c1 [KU55933] (first compound 0.2 µM, partner dose 1 µM)",116%
24,"C[C@@H](Oc1cc(-c2cnn(C3CCNCC3)c2)cnc1N)c1c(Cl)ccc(F)c1Cl [Crizotinib] + COC(=O)c1sccc1S(=O)(=O)Nc1ccc(Nc2ccccc2)cc1OC [GSK0660] (first compound 0.2 µM, partner dose 1 µM)",99.7%
25,"CS(=O)(=O)CCNCc1ccc(-c2ccc3ncnc(Nc4ccc(OCc5cccc(F)c5)c(Cl)c4)c3c2)o1 [lapatinib] + O=C(O)C(=O)Nc1sc2c(c1C(=O)O)CCNC2 [TCS401] (first compound 0.8 µM, partner dose 1.66667 µM)",109%
